The campaign covered roughly 340,000 compounds. About 6,900 (2%) were called active. Cut-off read from the data, not from the text of the source: active = inhibition above about 30%; inactive = below that, where a call was filed. Only a part is listed here, and it is no random draw. Where no call is shown, the source filed none.
The compounds below were run against D(2) dopamine receptor (Homo sapiens) (UniProt P14416) (assay: HTS Assay for Allosteric Antagonists of the Human D2 Dopamine Receptor: Primary Screen for Antagonists). Conditions: HEK293 TREx D2 cells, calcium flux, dopamine EC80; at 10 µM; stronger effect = higher value.
Outline: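 Calcium mobilization kinetics were recorded at 1 s intervals in tetracycline-induced HEK293 T-REx D2 cells, first for 180 s after compound addition and then 180 s after EC80 dopamine.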
Note: 0% is about no effect.

Sequence of UniProt P14416 (P14416 whole entry, looked up): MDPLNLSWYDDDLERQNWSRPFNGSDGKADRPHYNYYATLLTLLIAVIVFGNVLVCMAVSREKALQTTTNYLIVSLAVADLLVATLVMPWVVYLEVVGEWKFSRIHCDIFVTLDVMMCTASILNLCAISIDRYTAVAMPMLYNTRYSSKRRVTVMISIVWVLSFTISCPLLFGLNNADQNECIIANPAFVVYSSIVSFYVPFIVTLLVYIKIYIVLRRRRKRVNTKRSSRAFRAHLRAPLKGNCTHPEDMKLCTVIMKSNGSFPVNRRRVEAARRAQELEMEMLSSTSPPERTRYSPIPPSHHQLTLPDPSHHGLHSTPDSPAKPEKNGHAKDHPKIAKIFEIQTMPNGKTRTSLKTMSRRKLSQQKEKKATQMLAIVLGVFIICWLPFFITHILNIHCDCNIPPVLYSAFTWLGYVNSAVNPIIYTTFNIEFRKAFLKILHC

SMILES	inhibition
Cc1ccc(NC(=O)/C=C/c2ccccc2)c(Br)c1	8.88%
COc1ccc(-c2nc3scc(CCNS(=O)(=O)c4c(C)noc4C)n3n2)cc1	28.2%
O=C(Nc1ccc(F)cc1)C(c1ccccc1)N1CCN(S(=O)(=O)c2ccc3ccccc3c2)CC1 (stereo unspecified)	active: 36.9%
Cc1ccc(C)c(CN2C(=O)c3ccccc3S(=O)(=O)c3ccc(C(=O)Nc4ccccc4C(F)(F)F)cc32)c1	7.68%
CN1CCN(C(=O)C(=O)Nc2c3c(nn2-c2ccc(F)cc2)CSC3)CC1	-17.6%
Cc1cc(-n2c(C)cc(C(=O)COc3ccc(F)c(F)c3)c2C)no1	active: 30%
Cc1cc(C)c2oc(C(=O)Nc3sc4c(c3C(=O)NCc3ccco3)CCC4)cc(=O)c2c1	7.53%
CC(=O)c1ccc(N2CCN(C(=O)C3CCCN(S(=O)(=O)c4cnc[nH]4)C3)CC2)cc1 (stereo unspecified)	active: 32.4%
COC(=O)c1ccc(NC(=O)c2c(NCc3ccc(C)o3)sc3c2CCCC3)cc1	2.87%
CCn1c(C(=O)NCc2cccc(Br)c2)cc2oc3ccccc3c21	11.9%
COc1cc(-c2noc(-c3cc4cc(F)ccc4oc3=O)n2)cc(OC)c1OC	-1.31%
CCc1nnc(NC(=O)c2cc(=O)c3cc(C)c(C)cc3o2)s1	13.9%
CN1C(=O)C2(c3ccccc31)N(c1ccccc1)C(=O)CS2(=O)=O (stereo unspecified)	1.76%
O=C(Cn1c(=O)n(Cc2ccc3c(c2)OCO3)c(=O)c2oc3ccccc3c21)Nc1ccccc1	-2.39%
CSc1ccc(CCNC(=O)C2CCN(c3nc4ccccc4nc3C(F)(F)F)CC2)cc1	4.14%
Cc1ccccc1CNC(=O)C1CCN(c2nnc(C)c3c(C)n(-c4ccccc4)nc23)CC1	-17.1%
CCc1ccc(-c2nc3ccc(Br)cc3c(C(=O)O)c2C)s1	4.51%
Cc1c(Cl)cccc1NC(=O)CCn1c(=O)c2cccn2c2ccccc21	2.95%
CC(CNC(=O)C1CCN(Cc2cc3ccccc3n2Cc2ccccc2)CC1)c1ccccc1 (stereo unspecified)	14.8%
CCOc1ccccc1NC(=O)CSc1nccn1-c1ccc(Cl)cc1	-4.52%
C[C@H]1CCC[C@]2(O[C@@H](CCO)C[C@H](O)[C@H]2O)O1	active: 30.6%

SMILES	inhibition
COc1cc(OC)c(OC)cc1CN1CCN(c2ccccc2OC)CC1	active: 70.1%
COc1ccc(C(=O)c2cn(Cc3ccc(C)cc3)c3cc4c(cc3c2=O)OCO4)cc1	6.72%
O=C(CSc1cn(CC(=O)N2CCCCC2)c2ccccc12)Nc1ccccc1F	-5.25%
COc1ccccc1-c1noc(CSc2nc3ccc(C)cc3[nH]2)n1	-9.25%
COc1cc(NC(=O)CCS(=O)(=O)c2nc(-c3cccs3)cc(C(F)(F)F)n2)cc(OC)c1OC	-7.53%
O=c1[nH]cnc2sc3c(c12)CN(Cc1ccccc1)CC3	active: 73.8%
COc1cc(NC(=O)c2nnn(CC(=O)Nc3ccccc3)c2N)cc(OC)c1	2.43%
Cc1ccc2nc(-c3ccc(NC(=O)COc4c(C)ccc(C)c4C)cc3)sc2c1	-11.1%
O=C(CN1C(=O)C2(SCC(=O)N2c2ccccc2)c2ccccc21)NCc1ccccc1Cl (stereo unspecified)	-1.45%
O=C(NC1CCCCC1)c1ccc2c(c1)N(Cc1ccccc1)C(=O)c1ccccc1S2	-25.5%
CCCCNc1nc(Oc2ccc(=O)n(C)n2)nc(N(C)C)n1	-12.2%
CCCc1nn2c(=O)cc(COC(=O)c3ccc(NC(=O)C(C)Oc4ccccc4)cc3)nc2s1 (stereo unspecified)	-3.61%
CSc1nc(-c2ccc(F)cc2)nc2c1Cc1c(CO)cnc(C)c1O2	7.68%
CCC(=O)Nc1cccc(-c2csc(-c3ccccc3)n2)c1	active: 37.7%
CCOc1ccc(CCNC(=O)Cn2nnc(-c3ccc(OC)c(OC)c3)n2)cc1OCC	6.16%
CCOc1cc(CNCCSc2nnnn2-c2ccccc2)cc(Cl)c1OC	0.0972%
CC(C)Oc1ccc(CNS(=O)(=O)c2cnc(N)nc2)cc1	11.5%
Cc1cc(C)cc(NC(=O)Cn2c(=O)oc3cc(S(=O)(=O)N4CCCC4)ccc32)c1	-4%
CCCC12CN3CC(CCC)(CN(C1)C3c1c[nH]c3ccccc13)C2=O (stereo unspecified)	7.18%
Cc1ccc(-c2nnc(SCC(=O)N3CCc4ccccc43)o2)cc1	7.84%
Cc1ccc(CNC(=O)c2ccc3c(c2)N(Cc2ccccc2F)C(=O)c2ccccc2S3(=O)=O)cc1	23.6%

SMILES	inhibition
O=S(=O)(c1ccc2ccccc2c1)n1nc(-c2ccco2)nc1NCc1cccc(Cl)c1	6.54%
COc1ccc(S(=O)(=O)c2cn(C)c3cc(N4CCCC4)c(F)cc3c2=O)cc1	8.23%
COc1cccc(CNC(=O)c2cnc(N3CCCC3)nc2C)c1	-4.85%
COC(=O)CNC(=O)C(Cc1ccccc1)NS(=O)(=O)c1ccc2c(c1)c(=O)n(C)c(=O)n2C (stereo unspecified)	9.69%
COCCN1Cc2cccc(C(=O)Nc3ccc(C)cc3C)c2C1=O	1.74%
Cc1c(Cl)cccc1NC(=O)c1cnc2sc(N3CCCC3)nn2c1=O	-1.08%
Cc1ccc(NC(=O)Cn2c(=O)n(CCCCCC(=O)NCc3ccc(F)cc3)c(=O)c3sccc32)c(C)c1	-1.91%
CCN(C(=O)C1CCN(S(=O)(=O)c2ccc3c(c2)CCCN3C(=O)C2CCC2)CC1)c1cccc(C)c1	-7.3%
Cc1cc2c(cc1S(=O)(=O)N1CCC(C)CC1)OCC(=O)N2	-15.9%
O=C(COc1ccccc1)Nc1ccc(S(=O)(=O)N(Cc2ccccc2)c2ccccc2)cc1	-12.7%
COC(=O)c1sc2cccc(F)c2c1S(=O)(=O)Nc1cc(OC)cc(OC)c1	15.4%
O=C(CSc1nc2ccccc2c(=O)n1CCC(=O)NC1CCCCC1)Nc1ccccc1Cl	2.71%
Cc1nn(CCCC(=O)NCc2ccccc2)c(=O)c2nn(-c3ccccc3)c(C)c12	-7.43%
CCC(=O)N1CCc2cc(S(=O)(=O)NCCC(=O)Nc3ccc(OC)c(Cl)c3)ccc21	1.31%
CC(C)c1nnc(N2C(=O)c3oc4ccccc4c(=O)c3C2c2cccc(O)c2)s1 (stereo unspecified)	-0.477%
O=C(CSc1cn(CC(=O)N2CCCCCC2)c2ccccc12)Nc1ccccc1F	15.1%
CCc1nnc2c(NCc3ccccc3OC)nc3ccccc3n12	-2.09%
COc1ccc(Nc2nc(N)nc(CN3CCN(c4ccccn4)CC3)n2)cc1	active: 72.7%
COc1ccccc1C(C)NCC(=O)NCc1ccc(C)cc1 (stereo unspecified)	active: 37.2%
